Kd, koff and kon data for three molecules are collected here from patent CN113667016A (PUMISI BIOTECHNOLOGY ZHUHAI CO LTD, dated 2021).

As a reminder, the Kd is a measure of binding affinity in units of concentration. A lower Kd goes with a tighter complex. Usually koff stands for the first-order rate constant of dissociation. One may read the kon as the second-order rate constant of association. Read a high kon as faster complex formation.

This assay has as its target S1-His (SARS-CoV-2).

B1: 89C8-23-F1 (other)
heavy: QVQLVQSGAEVKKPGSSVKVSCKASGGTFSSYAISWVRQAPGQGLEWMGGIIPILGIANYAQKFQGRVTITADKSTSTAYMELSSLRSEDTAVYYCARGGLGFGELFRKTGYYFDYWGQGTLVTVSSASTKGPSVFPLAPSSKSTSGGTAALGCLVKDYFPEPVTVSWNSGALTSGVHTFPAVLQSSGLYSLSSVVTVPSSSLGTQTYICNVNHKPSNTKVDKKV[letters of human IgG1 Fc with changes not shown]GGGGSGGGGSGGGGSGGGGSGEQAKTFLDKFNHEAEDLFYQS
light: EIVMTQSPATLSVSPGERATLSCRASQSVSSNLAWYQQKPGQAPRLLIYAASTRATAIPARFSGSGSGTEFTLTISSLQSEDFAVYFCQQYNKLPLTFGGGTKVDIKRTVAARTVAAPSVFIFPPSDEQLKSGTASVVCLLNNFYPREAKVQWKVDNALQSGNSQESVTEQDSKDSTYSLSSTLTLSKADYEKHKVYACEVTHQGLSSPVTKSFNRGEC
In the case of B1, the Kd was determined as 11 nM, the koff came to 0.000432 s⁻¹ and the kon amounted to 39300 M⁻¹ s⁻¹.

B2: 89C8-23-F2 (other)
heavy: QVQLVQSGAEVKKPGSSVKVSCKASGGTFSSYAISWVRQAPGQGLEWMGGIIPILGIANYAQKFQGRVTITADKSTSTAYMELSSLRSEDTAVYYCARGGLGFGELFRKTGYYFDYWGQGTLVTVSSASTKGPSVFPLAPSSKSTSGGTAALGCLVKDYFPEPVTVSWNSGALTSGVHTFPAVLQSSGLYSLSSVVTVPSSSLGTQTYICNVNHKPSNTKVDKKV[letters of human IgG1 Fc with changes not shown]GGGGSGGGGSGGGGSGGGGSGEQAKTFLDKFNHEAEDLFYQS
light: EQAKTFLDKFNHEAEDLFYQSGGGGSGGGGSGGGGSGGGGSGEIVMTQSPATLSVSPGERATLSCRASQSVSSNLAWYQQKPGQAPRLLIYAASTRATAIPARFSGSGSGTEFTLTISSLQSEDFAVYFCQQYNKLPLTFGGGTKVDIKRTVAARTVAAPSVFIFPPSDEQLKSGTASVVCLLNNFYPREAKVQWKVDNALQSGNSQESVTEQDSKDSTYSLSSTLTLSKADYEKHKVYACEVTHQGLSSPVTKSFNRGEC
On to B2, for which the Kd came out at 33 nM, the koff turned out to be 0.000786 s⁻¹ and the kon was determined as 24100 M⁻¹ s⁻¹.

B3: 89C8-23-F3 (other)
heavy: QVQLVQSGAEVKKPGSSVKVSCKASGGTFSSYAISWVRQAPGQGLEWMGGIIPILGIANYAQKFQGRVTITADKSTSTAYMELSSLRSEDTAVYYCARGGLGFGELFRKTGYYFDYWGQGTLVTVSSASTKGPSVFPLAPSSKSTSGGTAALGCLVKDYFPEPVTVSWNSGALTSGVHTFPAVLQSSGLYSLSSVVTVPSSSLGTQTYICNVNHKPSNTKVDKKV[letters of human IgG1 Fc with changes not shown]
light: B2 light
B3 displayed a Kd of 34 nM, a koff of 0.000867 s⁻¹ and an on-rate (kon) of 25300 M⁻¹ s⁻¹.
